Read counts are not given, so values of variants with three or more changes are uncertain.

B1: LINE1-full (parent)
chain: UACGUAGGUGGUUUUCCCCUGAUAGUGCUAAGGGGGCCUGGAAGUUUGGACUGGGCAGAGCUCAACACAGCGUGGCAAAGUGGCUGUGGCUAGACUGCCUCUCUGGAUUCCUCGUCACUCAGCAGGGCAUCUCUGAGAGAAAUGCC

In the data set the parent is B1. As to the kind of experiment: self-cleavage, relative activity (ratio to wild type); higher = more cleavage; in vitro, sequencing; the parent is a self-cleaving ribozyme.
For UACGUAGGUGGUUUUCCCCUGAUAGUGCUAAGGGGGCCUGGGAGUUUGGACUGGGCAGAGCUCAACACAGCGUGGCAAAGUGGCGGUGGCAAGACUGCCUCUCUGGAUUCCUCGUCACUCAGCAGGGCAUCUCUGAGAGAAAUGCC, the self-cleavage is 0.16.

Consider UACGUAGGUGGUUUUCCCCUGAUAGUGCUAAGGGGGCCUGGAAGUUUGGACUGGGCAGAGCUCAACACAGCGUGGCAAAGUGGCUGUGGCUAGACUGCCUCACUGGAUUCCUCGUCGCUCAGCAGGGCGUCUCUGAGAGAGAUGCC, for which the self-cleavage was 1.31.

Regarding UACGUAGGUGGUUUUCCCCUGAUAGUGCUAAGGGAGCCUGGAAGUUUGGACUGGGCAGAGCUCAACGCAGCAUGGCAAAGCGGCUGUGGCUAGACUGCCUCUCUGGAUUCCUCGUCACUCAGCAGGGCAUCUCUGAGAGAAAUGCC, the self-cleavage amounted to 0.26.

Regarding UACGUAGGUGGUUUUCCCCUGAUAGUGCUAAGGGGGCCUGGAAGUUUGGACUGGGCAGAGCUCAACACAGCGUGGCAAGGUGGCUGAGGCUAGACUGCCUCUCUGGAUUCCUCGUCACUCAGCUGGGCAUCUCUGAGAGAAAUGCC, the self-cleavage was 0.15.

Turning to UACGUAGGUGGUUUUCCCCUGAUAGUGCUAAGGGGGCCUGGAAGUUUGGACUGGGCAGAGCUCAACACAGCGUGGCAAGGUGGCUGUGGCUAGACAGCCUCUCGGGAUUCCUCGUCACUCAGCAGGGCAUCUCUGAGAGAAAUGCC, the self-cleavage was 0.48.

As to UACGUAGGUGGUCUUCCCCUGAUCGUGCUAAGGGGGCCUGGAAGUUUGGACUGGGCAGAGCUCAACACAGCGGGGCAAAGUGGCUGUGGCUAGACUGCCUCUCUGGAUACCUCGUCACUCAGCAGGGCAUCUCUGAGAGAAAUGCC, the self-cleavage turned out to be 0.

Consider UACGUAGGUGAUCUUCCCCUGAUAGUGCUAAGGGGGCCUGGAAGUUUGGACCGGGCAGAGCUCAACACAGCGUGGCAAAGUGGCUGUGGCUAGACUGCCUCACUGGAUUCCUCGUCACUUAGCAGGGCAUCUCUGAGAGAAAUGCC, for which the self-cleavage was found to be 0.

Take UACGUAGGUGGUCUUCCCCUGAUAGUGCUAAGGGGGCCUGGAAGUUUGGACUGGGCAGAGCUCAACACAGCGUGGCAAAGUGGCUGUGGCUAGACUGCCUCUCUGGGUUCCUCGUCACUCAGCAGAGCAUCUCUGAGAGAAAUGCC: the self-cleavage was 1.16.

As for UACGUACGUGGUUUUCCCCUGAUAGUGCUAAGGGGGCCUGGAAGUUUGGACUGGGCAGAGCUCAACACUGCGUGGCAAAGUGGCUGCGGCUAGACUGCCUCUCUGGAUUCCUCGUCACUCAGCAGGGCAUCUCUGAGAGAAAUGCC, the self-cleavage stood at 0.16.

As to UACGUAGGUGGUUGUCCCCUGAUAGUGCUAAGGGGGCCUGGAAGUUUGGACUGGGCAGAGCUCAGCACAGCGUGGCAGAGUGGCUGUGGCUAGACUGCCUCUCUGGAUUCCUCGUCACUCAGCAGGGCAUCUCUGAGAGAAAUGCC, the self-cleavage came out at 0.

In the case of UACGUAGGUGGUUUUCCCCUGAUAGUGCUAAGGGGGCCUGGAAGUUUGGACUGGGCGGAGCUCAGCGCAGCGUGGCAAAGUGGCUGUGGCUAGACUGCCUCUCUGGAUUCCUCGUCACUCAGCAGGGCAUCUCUGAGAGAAAUGCC, the self-cleavage came out at 0.

Turning to UACGUAGGUGGUUUUCCCCUGAUAGUGCUAAGGGGGCCUGGAAGUUUGGACUGGGCAGAGCUCAACACAGCGUGGCAAAGUGGCUGUGGCUAGGCUGCCUCUCUGGAUUCCUCGUCACUCAGCAGGGCACCUCUGAGAGAAUUGCC, the self-cleavage turned out to be 0.16.

Take UACGUAGGUGGUUUUCCCCUGAUAGUGCUAAGGGGGCCUGGAAGUUUGGACUGGGCAGAGCUCAACUCAGCGUGGCAAAGUGGCUGUGGCUAGACUGCCUCUCUGGAUUCCUCGUCACUCAGCAGGGCAUCUCUGUGAGAAAUGGC: the self-cleavage was 0.17.

Consider UACGUAGGUGGUUUUCCCUUGAUAGUGCUAAGGGGGCCUGGAAGUUUGGACUGGGCAGUGCUCAACACCGCGUGGCAAAGUGGCUGUGGUUAGACUGCCUCUCCGGAUUCCUCGUCACUCAGCAGGGCAUCUCUGAGAGAAAUGCC, for which the self-cleavage amounted to 0.02.

UACGUAGGUGGUUUUCCCCUGAUAGUGCUAAGGGGGCCUGGAAGUUUGGACUGGGCAGAGCUCAACACAGCGGGGCGAAGUGGCUGUGGCUAGACUGCCUCUCUGGAUUCCUCGUCACUCAGCAGGGCGUCUCUGAGAGAAAUGCC: the self-cleavage was found to be 2.87.

UACGCAGGUGGUUUCCCCCUGAUAGUGCUAAGGGGGCCAGGAAGUUUGGACUGGGCAGAGCUCAACACAGCGUGGCAAAGUGGCUGUGGCUAGACUGCCUCUCUGGAUUCCUCGUCACUCAGCAGGGCAUCUCUGAGAGAAGUGCC: the self-cleavage was found to be 0.92.

With UACGUAGGUGGUUUUCCCCUUAUAGUGCUAAGGGGGCCUGGAAGUUUGGACUGGGCAGAGCUCAACACAGCGUUGCAAAGUGGCUGUGGCUAGACUGCCUCUCUGGAUUCCUCAUCACUCAGCAGGGCAUCUCUGAGAGAAAUGCC, the self-cleavage worked out at 1.68.

On to UACGUAGGUGGUUUUCCCCUGAUAGUGCUAAGGGGGCCUGGAAGUUUGGACUGGGCAGAGCUCAACACGGCGUGGCAAAGUGGCUGUGGCCAGACUGCCUCUCUGGAUUCCUCGUCACCCAGCAGGGCAUCUCUGAGAGAAAUGCC, for which the self-cleavage stood at 0.

On to UACGUAGGUGGUUCUCCCCUGAUAGUGCUAAGGGGGCCUGGAAGUUUGGACUGGGCAGAGCUCAACACAGCGUGGCAAAGUGGCUGUGGCUAGACUGCCUCUCUGGAUUCCUCGUCACUCAGCGGGGCAUCUCUGAGAGAGAUGCC, for which the self-cleavage came out at 0.98.

Regarding UACGUAGGUGGUUUUCCCCUGAUAGUGCUAAGGGGGCCUGGAAGUUUGGACAGGGCAGAGCUCAACUCAGCGUGGCAAAGUGGCUGUGGCUAGACUGCCUCCCAGGAUUCCCCGUCACUCAGCAGGGCAUCUCCGUGAGAAAUGCC, the self-cleavage worked out at 0.68.
